# Measured values as given in the supplement of paper PMC3334620.
# Whole data set: some 33,000 sequences, median “E-score (-0.5 to 0.5)” near -0.01, cut for the highest 2% near 0.26. Some of the results follow.
# Target: Ste12 (UniProt P13574)
# Assay: PBM E-score (8-mer binding enrichment) (E-score (-0.5 to 0.5)); higher = stronger / more preferred TF binding; most listed sequences are background and not binding sites
# Settings: protein concentration: 200 nM; construct: GST-DNA-binding domain
# Method in brief: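 Bound GST-tagged yeast transcription factors, applied at about 100-200 nM to double-stranded universal all-10-mer Agilent arrays, were detected with fluorescent anti-GST. Scans were normalised with masliner. A modified Wilcoxon-Mann-Whitney statistic, the E-score, was assigned to each ungapped eight-base word pooled with its reverse complement by the Universal PBM Analysis Suite.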
row,Sequence,PBM E-score
1,CAGATTAG,-0.165
2,AACATTTA,0.29
3,AGCCATGA,-0.191
4,GGGAGCCC,-0.262
5,AGAGATAT,-0.0179
6,GAGTGCAC,-0.0564
7,AATTTTCC,0.225
8,AGTGAAGA,0.114
9,AGCGGAAG,-0.0482
10,GACAACAA,0.0852
11,GCCGGCGA,-0.144
12,CGGGAAAA,0.157
13,CCTATAAA,-0.0504
14,CCGCCCCG,0.408
15,ATAAAATA,0.257
16,AAACGTCC,-0.0125
17,GTGTTCGA,0.0597
18,CGTTTTCA,0.132
19,AGTCGCAT,-0.0855
20,ATTATGAA,0.265
21,GCTCAAAC,0.0621
22,GCGAGCAC,-0.0355
23,AATCTCAG,0.00293
24,GCTTCACA,-0.11
25,ACTTCTTG,-0.113

row,Sequence,PBM E-score
1,CGCTAGTA,0.0516
2,CTGGTGGC,0.069
3,GATGTCGC,0.107
4,GATTGGGA,0.00516
5,CTCATACC,-0.108
6,GGTCCAGA,-0.0878
7,CGTGAATC,-0.0573
8,CCAGTACA,-0.0831
9,ATCTTGAC,-0.0287
10,AATTGGCA,0.0144
11,AGGGGTTC,-0.157
12,GAACGGTA,-0.17
13,AGGTGGAC,-0.114
14,GTTCCGCA,0.0689
15,CGTCTACC,0.00635
16,GCGGCTAC,-0.133
17,AACGTACG,-0.114
18,ACTGCCTG,-0.058
19,ACGTGAAT,0.0319
20,CGCTCACG,-0.0733
21,AAGTAGAT,0.111
22,ACGATGCG,-0.0979
23,ACTTCATC,-0.0336
24,GAAGGTAC,-0.0614
25,AGGTCGTG,-0.135

row,Sequence,PBM E-score
1,TCCCCAAA,0.205
2,CGATTGTC,0.00731
3,CAAAAGCC,-0.105
4,CTGATCGA,0.113
5,AATACAGC,0.0532
6,CCAGTGAA,0.0033
7,GACGCCTA,-0.192
8,CCGCGGCG,0.164
9,CAAGACCC,-0.0882
10,AAGACTCG,-0.213
11,CAGCGCAG,0.009
12,CACGCTGA,-0.128
13,CAATGATA,0.074
14,AAAGCCTT,-0.113
15,CTGCATAA,0.212
16,ATTCTTCG,-0.071
17,GAGGCCAC,-0.142
18,CGTGATAA,0.0396
19,AGTTCACC,-0.0938
20,GTTTGGTA,0.237
21,CCTCACAG,-0.0127
22,ATCCCTCG,0.15
23,AGGTAATA,0.136
24,GTGGCCCA,-0.178
25,AGGCCACA,-0.0447

row,Sequence,PBM E-score
1,GTAGCGTA,-0.158
2,CAAGACGA,-0.0851
3,ACGTTGAT,0.0985
4,CTGGCGGC,-0.0051
5,AGTGTGCA,-0.0995
6,CCGACCGG,0.0778
7,CGATGCAA,0.0367
8,ATGACATA,0.222
9,CATAGGTA,-0.127
10,ATTTGAGC,-0.0962
11,ACAGCCCA,-0.11
12,ATCGCTCA,-0.0285
13,ATTCGATG,-0.0197
14,ACCGAACT,0.002
15,CTGGTTTC,0.244
16,AGCACAAC,-0.06
17,AAGAACAC,0.0577
18,AAGGCTGA,-0.0789
19,AAATTGTG,0.00926
20,ACCTGACC,0.00259
21,AAAAACAC,0.233
22,GACCCCAC,0.0419
23,CAGTGCAC,0.00158
24,CTCTTATA,0.267
25,AGATGCAG,0.0178

row,Sequence,PBM E-score
1,AATTATCT,0.0433
2,ATACTTTG,0.116
3,GGTCGTGA,-0.166
4,GAGAACCC,-0.225
5,TCAATGGA,-0.0125
6,CTGTCTTC,-0.0969
7,CAAAGCAC,-0.0493
8,ACTTCGGG,-0.124
9,AAAGTCCC,-0.0967
10,GGGGATCA,-0.169
11,CGGCACGC,-0.0595
12,ACCTTGCT,-0.0405
13,ATATGGAT,0.0788
14,TAGCGGAA,0.013
15,ATCCACTG,0.00821
16,ACAGCTAG,-0.0833
17,CGTGGGAA,-0.152
18,GTATTAAC,0.132
19,AAAGTTCA,0.0924
20,ACTTTACG,0.0259
21,TGCCAAAA,0.145
22,GATAGAGC,-0.00952
23,AAGTAGAC,-0.0745
24,CCCGAATA,0.0626
25,AAATTATT,0.252

row,Sequence,PBM E-score
1,GCCGAACA,0.15
2,TTCAACAA,0.0977
3,CCAACTAG,-0.165
4,TGCTGTAA,0.00936
5,CATGGCAA,0.0424
6,AACCTGAA,0.171
7,ACACAGGG,-0.153
8,GGGCTTGA,-0.223
9,CCAATTGC,-0.14
10,GGCGATAA,0.101
11,CACATCCC,0.0949
12,ATGATGAA,0.108
13,GACATTAC,-0.0586
14,AGGCCGAA,-0.0014
15,TATCGCGA,0.146
16,ACCAACTG,-0.0131
17,AGATCGTC,-0.24
18,CTCTGGTA,-0.0543
19,AGCCGTGG,-0.0672
20,ACAAGGTG,-0.0938
21,GACGAGGA,-0.0777
22,AGAAGCAG,-0.053
23,CATAGTGG,-0.162
24,CACCGTCG,-0.0882
25,TGCATGAA,0.143

row,Sequence,PBM E-score
1,CCACTAAC,0.00893
2,ATTTACGG,0.192
3,GATACAAC,0.151
4,AGCAGATA,-0.086
5,CTTGCATA,-0.045
6,GACTCAAC,-0.0411
7,ATTTTGAA,0.176
8,AAGGGATT,-0.158
9,ACTGAGGA,-0.112
10,ACCCAGCG,-0.282
11,AAAGAGGT,0.0384
12,ACCACTAT,-0.108
13,CCATTTAC,0.12
14,ATTTAGCC,-0.0302
15,AAAATGGC,0.165
16,CGTCACCC,0.0725
17,CATAGCGA,-0.237
18,GTCCCTGA,-0.143
19,AGGTGGGG,0.153
20,CACAGTTC,-0.0233
21,CACTTTCG,0.0937
22,GAGATGGC,-0.0525
